Assay [1] concerns the target T1, recombinant human IL-10Ra fusion protein (R&D Systems) (human, UniProt Q13651 22-235).
T1 sequence (looked up): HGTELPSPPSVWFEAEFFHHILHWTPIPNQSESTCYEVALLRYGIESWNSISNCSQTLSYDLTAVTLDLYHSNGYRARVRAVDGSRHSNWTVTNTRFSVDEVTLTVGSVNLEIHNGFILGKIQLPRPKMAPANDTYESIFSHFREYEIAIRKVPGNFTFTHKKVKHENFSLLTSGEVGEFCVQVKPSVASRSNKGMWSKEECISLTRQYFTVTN
Put plainly: ELISA, coated human IL-10Ra fusion protein. The method, then: Materials and methods: Recombinant human IL-10Ra fusion protein (R&D Systems) were immobilized on 96 well microtiter plate at a concentration of 1 μg/ml in Coating Solution (SeraCare) overnight at 4° C. The wells were washed with wash solution (0.05% Tween20 in imidazole-buffered saline) and blocked with 1% BSA. Serial dilutions of Ab/IL-10 fusion proteins were added to wells. After incubation at 37° C. for lhr, the wells were washed with wash solution. Peroxidase-conjugated goat anti-human kappa light chain antibody (Bethyl) was applied to each well at 37° C. for 1 hr incubation. After washing, the wells were developed with TMB substrate for 5-10 min at RT and then stopped with 1 N HCl. Thereafter absorbance was measured at 450 nm and 650 nm. The EC50 value was calculated through GraphPad Prism7.
A general note: An ELISA detects its analyte on a solid surface through an enzyme-linked reagent.

In assay [2] the target is T2, recombinant human CSF1R-Fc fusion protein (human, UniProt P07333 partial chain).
T2 construct: probably the same protein; also called CSF1R-Fc (dimer); not shown: Fc part
Put plainly: ELISA, coated human CSF1R-Fc. As to the method:
Materials and methods: Recombinant human CSF1R-Fc, or mouse CSF1R-Fc (Sino Biological) were immobilized on 96 well microtiter plate at a concentration of 1 μg/mL in Coating Solution (SeraCare) overnight at 4° C. The wells were washed with wash solution (0.05% Tween20 in imidazole-buffered saline) and blocked with 1% BSA. Serial dilutions of the anti-CSF1R/IL-10 fusion proteins were added to wells. After incubation at 3TC for 1 h, the wells were washed with wash solution. To detect chimeric Ab/IL10 fusions, peroxidase-conjugated goat anti-human kappa light chain antibody (Bethyl) was applied to each well at 3TC for 1 h incubation. To detect AB98 or AB98/1110 fusions, peroxidase-conjugated Goat anti-mouse IgG Fab antibody (Jackson immunoresearch) was applied to each well at 3TC for 1 h incubation. After washing, the wells were developed with TMB substrate for 5-10 min at RT and then stopped with 1 N HCl. Thereafter absorbance was measured at 450 nm and 650 nm.

The target of assay [3] is T3, recombinant human CSF1R-His (Biolegend) (human, UniProt P07333 partial chain, limits assumed).
T3 construct: Bought protein; also called CSF1R-His (monomer); hu-CSF1R; not shown: His tag
Kind of assay: ELISA, coated human CSF1R-His (monomer). As to the method: (§1) Materials and methods: Recombinant human CSF1R-His (Biolegend), or CSF1R-Fc fusion protein, were immobilized on 96 well microtiter plate at a concentration of 1 μg/mL in Coating Solution (SeraCare) overnight at 4° C. The wells were washed with wash solution (0.05% Tween20 in imidazole-buffered saline) and blocked with 1% BSA. Serial dilutions of the antibodies were added to wells. After incubation at 3TC for 1 h, the wells were washed with wash solution. Peroxidase-conjugated goat anti-human kappa light chain antibody (Bethyl) was applied to each well at 3TC for 1 h incubation. After washing, the wells were developed with TMB substrate for 5-10 min at RT and then stopped with 1 N HCl. Thereafter absorbance was measured at 450 nm and 650 nm. The EC50 values were calculated through GraphPad Prism7.

Assay [4] addresses T2, recombinant human CSF1R-Fc fusion …. Kind of assay: ELISA, coated human CSF1R-Fc (dimer). The method, then:
as §1

Assay [5] concerns the target T4, human CSF1R expressed on cells (293F/huCSF1R stable cells; AML5 cells; human monocytes and macrophages) (human, UniProt P07333 20-972). Kind of assay: cell-based or functional assay.
Assay [6] addresses T4, human CSF1R expressed on cells …. Kind of assay: cell-based or functional assay. The source holds these as a separate data set.
Assay [7] concerns the target T5, cynomolgus CSF1R expressed on 293F cells (cynomolgus monkey, UniProt P07333 20-972 (human entry)).
T5 construct: also called cynoCSF1R
T5 chain: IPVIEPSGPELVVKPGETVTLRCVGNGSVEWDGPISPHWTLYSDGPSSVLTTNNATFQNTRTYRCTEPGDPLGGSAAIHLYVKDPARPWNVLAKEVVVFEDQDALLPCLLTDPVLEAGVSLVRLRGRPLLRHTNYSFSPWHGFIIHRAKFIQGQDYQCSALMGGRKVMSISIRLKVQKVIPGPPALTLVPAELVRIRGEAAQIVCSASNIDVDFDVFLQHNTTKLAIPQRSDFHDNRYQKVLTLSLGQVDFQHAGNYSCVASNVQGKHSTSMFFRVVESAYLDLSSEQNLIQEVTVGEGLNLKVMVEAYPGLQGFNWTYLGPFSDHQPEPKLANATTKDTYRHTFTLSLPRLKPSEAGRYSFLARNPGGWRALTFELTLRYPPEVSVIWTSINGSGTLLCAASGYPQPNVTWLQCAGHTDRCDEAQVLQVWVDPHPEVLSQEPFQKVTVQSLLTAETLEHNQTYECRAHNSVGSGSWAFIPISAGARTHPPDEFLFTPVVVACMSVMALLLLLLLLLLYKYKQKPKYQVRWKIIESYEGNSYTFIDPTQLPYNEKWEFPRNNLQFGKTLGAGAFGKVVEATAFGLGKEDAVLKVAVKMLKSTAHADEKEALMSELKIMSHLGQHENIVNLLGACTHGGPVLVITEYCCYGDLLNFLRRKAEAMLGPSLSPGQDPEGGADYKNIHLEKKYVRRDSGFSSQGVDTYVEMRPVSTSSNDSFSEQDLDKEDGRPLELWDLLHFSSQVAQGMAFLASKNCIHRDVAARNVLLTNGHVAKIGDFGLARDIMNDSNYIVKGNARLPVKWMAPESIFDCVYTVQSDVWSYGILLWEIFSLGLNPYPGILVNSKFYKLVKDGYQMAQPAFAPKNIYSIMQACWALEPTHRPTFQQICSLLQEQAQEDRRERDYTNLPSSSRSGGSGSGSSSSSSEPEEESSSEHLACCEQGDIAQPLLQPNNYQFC
Kind of assay: flow cytometry titration on 293F cells overexpressing cynomolgus CSF1R, anti-human IgG-Alexa Fluor 647. From the text:
Materials and methods: The gene segments encoding full-length human CSF1R or cynomolgus CSF1R were obtained using Thermo gene synthesis service and cloned in a mammalian expression vector pCDNA3.4. […] After washing with FACS buffer (2%FBS in PBS), the cells were stained with anti-human IgG-Alexa Fluor 647 and analyzed by Attune N×T Flow Cytometer (Thermo Scientific).

Changes are numbered by the printed parent chain.

By EC50 is commonly meant the midpoint of the concentration-response curve.

B1: chimeric anti-CSF1R/IL10 fusion protein 6M6/(IL10)2 (antibody, human IgG1, kappa)
heavy: DVQLQQSGTVLARPGASVKMSCKASGYTFTSYWIHWVKQRPGQGLEWIGAIYPGNRDTNYNQKFKGKAKLTTVTSASTAYMELSSLTNEDSAVYYCTGAFAGYYDWYFDVWGAGTTVTVSS[letters of human IgG1 constant region left out]LGGGGSGGGGSGGGGSPGQGTQSENSCTHFPGNLPNMLRDLRDAFSRVKTFFQMKDQLDNLLLKESLLEDFKGYLGCQALSEMIQFYLEEVMPQAENQDPDIKAHVNSLGENLKTLRLRLRRCHRFLPCENKSKAVEQVKNAFNKLQEKGIYKAMSEFDIFINYIEAYMTMKIRNGGGGSGGGGSGGGGSPGQGTQSENSCTHFPGNLPNMLRDLRDAFSRVKTFFQMKDQLDNLLLKESLLEDFKGYLGCQALSEMIQFYLEEVMPQAENQDPDIKAHVNSLGENLKTLRLRLRRCHRFLPCENKSKAVEQVKNAFNKLQEKGIYKAMSEFDIFINYIEAYMTMKIRN
light: DIVLTQSPASLAVSLGQRATISCKASQGVDYAGDSYMNWYQQKPGQPPKLLIYVASDLDSGIPARFSGSGSGTNFTLNIHPVEEEDAATYYCQQSYEDPRTFGGGTTLEIQRTVAAPSVFIFPPSDEQLKSGTASVVCLLNNFYPREAKVQWKVDNALQSGNSQESVTEQDSKDSTYSLSSTLTLSKADYEKHKVYACEVTHQGLSSPVTKSFNRGEC
notes: Antibody-cytokine fusion: two human IL10 in tandem fused by linkers to the C-terminus of the heavy chain
For B1, the results for the EC50 in assay [1] and in assay [2] were 9.36 nM and 0.232 nM, respectively.

B2: humanized anti-CSF1R antibody 6D4.hu22 (antibody, human IgG1, kappa)
heavy: QIQLVQSGAEVKKPGASVKVSCKASGYSFTGYNMNWVRQAPGKSLEWIGDINPYYGATTYNQKFKGRVTLTVDTSTSTAYMELSSLRSEDTAVYYCARRGDYGDYEGWYFDVWGQGTMVTVSS[letters of human IgG1 constant region left out]
light: DIQMTQSPSSLSASVGDRVTITCHASQNINVWLSWYQQKPGNAPKLLIYKASNLHTGVPSRFSGSGSGTDFTLTISSLQPEDIATYYCQQGQSYPYTFGGGTKLEIKRTVAAPSVFIFPPSDEQLKSGTASVVCLLNNFYPREAKVQWKVDNALQSGNSQESVTEQDSKDSTYSLSSTLTLSKADYEKHKVYACEVTHQGLSSPVTKSFNRGEC
notes: Humanized version of 6D4
On to B2, for which the EC50 was 0.211 nM in assay [3] and 0.145 nM in assay [4]. Further, the “IC50 (M), CSF1-dependent AML5 cell proliferation” value in assay [5] was 5.71e-10 M.

B3: humanized anti-CSF1R/IL10 fusion protein 6D4.hu22/IL10 (antibody, human IgG1, kappa)
heavy: QIQLVQSGAEVKKPGASVKVSCKASGYSFTGYNMNWVRQAPGKSLEWIGDINPYYGATTYNQKFKGRVTLTVDTSTSTAYMELSSLRSEDTAVYYCARRGDYGDYEGWYFDVWGQGTMVTVSS[letters of human IgG1 constant region left out]LGGGGSGGGGSGGGGSPGQGTQSENSCTHFPGNLPNMLRDLRDAFSRVKTFFQMKDQLDNLLLKESLLEDFKGYLGCQALSEMIQFYLEEVMPQAENQDPDIKAHVNSLGENLKTLRLRLRRCHRFLPCENKSKAVEQVKNAFNKLQEKGIYKAMSEFDIFINYIEAYMTMKIRN
light: B2 light
notes: Antibody-cytokine fusion: human IL10 fused by a linker to the C-terminus of the heavy chain
As to B3, the “IC50 (M), inhibition of AML5 cell proliferation (CSF1-dependent)” value in assay [6] turned out to be 2.98e-09 M. In assay [2], the EC50 came to 0.271 nM. The binding result in assay [7] was “binds”.

B4: humanized anti-CSF1R/IL10 fusion protein 6D4.hu41/IL10 (antibody, human IgG1, kappa)
heavy: B3 heavy with Q1E, V5Q, V20I, K23E, R38K, V68A
light: B2 light with L73F
notes: as for B3
As for B4, the “IC50 (M), inhibition of AML5 cell proliferation (CSF1-dependent)” value in assay [6] is 3.46e-09 M. For the same molecule, the 50% effective concentration (EC50) in assay [2] was 0.22 nM. For the same molecule, the binding result in assay [7] was “binds”.

B5: humanized anti-CSF1R antibody 6D4.hu41 (antibody, human IgG1, kappa)
heavy: B2 heavy with Q1E, V5Q, V20I, K23E, R38K, V68A
light: B2 light with L73F
notes: Humanized version of 6D4
As for B5, the results for the EC50 in assay [3] and in assay [4] were 0.203 nM and 0.139 nM, respectively. Further, in assay [5], the “IC50 (M), CSF1-dependent AML5 cell proliferation” value came out at 5.97e-10 M.

(Values after patent US20210403583A1 (ELIXIRON IMMUNOTHERAPEUTICS HONG KONG, published 2021).)
